Data as given in PMC514490.
Results are given in words; binding and its absence hold for the method and conditions named. In cells and extracts the contact can be indirect. Some results given as binding are weak or reduced against the parent protein; the word gives no strength.

By UniProt entry, the sequences of proteins in these tests, tags left out.
UniProt P20339: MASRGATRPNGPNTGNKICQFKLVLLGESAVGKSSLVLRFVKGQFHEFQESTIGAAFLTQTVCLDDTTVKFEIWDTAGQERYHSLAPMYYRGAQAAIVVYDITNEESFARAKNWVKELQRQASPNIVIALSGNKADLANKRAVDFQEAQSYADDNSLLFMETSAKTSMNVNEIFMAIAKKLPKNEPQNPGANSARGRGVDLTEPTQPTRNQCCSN
UniProt P62491: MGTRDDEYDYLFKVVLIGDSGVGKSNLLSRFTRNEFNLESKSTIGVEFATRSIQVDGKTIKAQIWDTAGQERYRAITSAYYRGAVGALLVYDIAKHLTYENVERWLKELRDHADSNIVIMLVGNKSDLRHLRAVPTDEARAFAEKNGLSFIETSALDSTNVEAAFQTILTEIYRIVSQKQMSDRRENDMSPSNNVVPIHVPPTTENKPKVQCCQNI

Key:
GST-Rab5 [1] = biological target: GST-Rab5 (UniProt P20339); test: pull-down; GST-Rab5-GTPγS-loaded beads incubated with bovine brain or HeLa cell cytosol, washed, eluted; Western blot with anti-Rabankyrin-5 antibodies; only the target purified
GST-Rab5 [2] = biological target: GST-Rab5 (UniProt P20339); test: pull-down; GST-Rab5-GDP-loaded beads incubated with bovine brain or HeLa cell cytosol, washed, eluted; Western blot with anti-Rabankyrin-5 antibodies; only the target purified
GST-Rab5 [3] = biological target: GST-Rab5 (UniProt P20339); test: pull-down; GST-Rab fusion proteins on glutathione-sepharose beads preloaded with GTPγS, incubated with in vitro-translated 35S-methionine-labelled protein; SDS-PAGE and phosphoimager analysis; only the target purified
GST-Rab11 [4] = biological target: GST-Rab11 (UniProt P62491); test: as above
GST-Rab5 [5] = biological target: GST-Rab5 (UniProt P20339); test: pull-down; GST-Rab fusion proteins on glutathione-sepharose beads preloaded with GDP, incubated with in vitro-translated 35S-methionine-labelled protein; SDS-PAGE and phosphoimager analysis; only the target purified
GST-Rab11 [6] = biological target: GST-Rab11 (UniProt P62491); test: as above
GST-Rab7, P51149 [7] = test: as above; conditions: remark: other sources report otherwise
GST-Rab7, P51149 [8] = test: pull-down; GST-Rab fusion proteins on glutathione-sepharose beads preloaded with GTPγS, incubated with in vitro-translated 35S-methionine-labelled protein; SDS-PAGE and phosphoimager analysis; only the target purified; conditions: remark: other sources report otherwise

B1: Rabankyrin-5 of HeLa cell cytosol (protein, UniProt Q9P2R3 1-1169)
chain: MAEEEVAKLEKHLMLLRQEYVKLQKKLAETEKRCALLAAQANKESSSESFISRLLAIVADLYEQEQYSDLKIKVGDRHISAHKFVLAARSDSWSLANLSSTKELDLSDANPEVTMTMLRWIYTDELEFREDDVFLTELMKLANRFQLQLLRERCEKGVMSLVNVRNCIRFYQTAEELNASTLMNYCAEIIASHWDDLRKEDFSSMSAQLLYKMIKSKTEYPLHKAIKVEREDVVFLYLIEMDSQLPGKLNEADHNGDLALDLALSRRLESIATTLVSHKADVDMVDKSGWSLLHKGIQRGDLFAATFLIKNGAFVNAATLGAQETPLHLVALYSSKKHSADVMSEMAQIAEALLQAGANPNMQDSKGRTPLHVSIMAGNEYVFSQLLQCKQLDLELKDHEGSTALWLAVQHITVSSDQSVNPFEDVPVVNGTSFDENSFAARLIQRGSHTDAPDTATGNCLLQRAAGAGNEAAALFLATNGAHVNHRNKWGETPLHTACRHGLANLTAELLQQGANPNLQTEEALPLPKEAASLTSLADSVHLQTPLHMAIAYNHPDVVSVILEQKANALHATNNLQIIPDFSLKDSRDQTVLGLALWTGMHTIAAQLLGSGAAINDTMSDGQTLLHMAIQRQDSKSALFLLEHQADINVRTQDGETALQLAIRNQLPLVVDAICTRGADMSVPDEKGNPPLWLALANNLEDIASTLVRHGCDATCWGPGPGGCLQTLLHRAIDENNEPTACFLIRSGCDVNSPRQPGANGEGEEEARDGQTPLHLAASWGLEETVQCLLEFGANVNAQDAEGRTPIHVAISSQHGVIIQLLVSHPDIHLNVRDRQGLTPFACAMTFKNNKSAEAILKRESGAAEQVDNKGRNFLHVAVQNSDIESVLFLISVHANVNSRVQDASKLTPLHLAVQAGSEIIVRNLLLAGAKVNELTKHRQTALHLAAQQDLPTICSVLLENGVDFAAVDENGNNALHLAVMHGRLNNIRVLLTECTVDAEAFNLRGQSPLHILGQYGKENAAAIFDLFLECMPGYPLDKPDADGSTVLLLAYMKGNANLCRAIVRSGARLGVNNNQGVNIFNYQVATKQLLFRLLDMLSKEPPWCDGSYCYECTARFGVTTRKHHCRHCGRLLCHKCSTKEIPIIKFDLNKPVRVCNICFDVLTLGGVS
With B1 as the binder, how does the binding (GST-Rab5 [1]) read?
The binding was “binds”.

What about the binding (GST-Rab5 [2]) of the same binder?
The binding was “no binding (condition: Rab5 loaded with GDP)”.

B2: in vitro-translated 35S-methionine-labelled Rabankyrin-5 full-length protein (protein, UniProt Q9P2R3 1-1169)
chain: B1 chain
modifications: 35S-methionine labelled
What does the source list for B2?
binding (GST-Rab5 [3]): binds; binding (GST-Rab11 [4]): no binding; binding (GST-Rab5 [5]): no binding (condition: Rab5 preloaded with GDP); binding (GST-Rab11 [6]): no binding

B3: in vitro-translated 35S-methionine-labelled Rabankyrin-5 full-length protein, Q9P2R3 1-1169 (protein)
chain: B1 chain
modifications: here or on the partner: 35S-methionine labelled
For B3, which binding (GST-Rab7, P51149 [7]) is on record?
Its binding is “no binding”.

And the binding (GST-Rab7, P51149 [8])?
Its binding is “no binding”.
